System: H929 cells
Experiment: cells
Details: Homo sapiens, NCI-H929, 24 h, read-out: H929 viability EC50

SMILES	EC50 [nM]
Fc1cccc(Cn2cnc3ccc(-c4cc(NCCNc5ccccn5)ncc4Cl)cc32)c1 [Example 81, N-{5-chloro-4-[1-(3-fluorobenzyl)-1H-benzimidazol-6-yl]pyridin-2-yl}-N′-(pyridin-2-yl)ethane-1,2-diamine]	1600
Cc1nnc(Cn2cnc3ccc(-c4cc(NC(=O)[C@@H]5CCCNC5)ncc4Cl)cc32)s1 [Example 89, (3R)—N-(5-chloro-4-{1-[(5-methyl-1,3,4-thiadiazol-2-yl)methyl]-1H-benzimidazol-6-yl}pyridin-2-yl)piperidine-3-carboxamide]	2400
CC(CN[C@H]1CC[C@H](Nc2cc(-c3ccc4ncn(Cc5cccc(F)c5)c4c3)c(Cl)cn2)CC1)OC1CCCCC1 (relative stereo) [Example 243, trans-N-{5-chloro-4-[1-(3-fluorobenzyl)-1H-benzimidazol-6-yl]pyridin-2-yl}-N′-[2-(cyclohexyloxy)propyl]cyclohexane-1,4-diamine]	470
Clc1cnc(NC2CC3(CCNCC3)C2)cc1-c1ccc2ncn(CC3CCOCC3)c2c1 [Example 179, N-{5-chloro-4-[1-(tetrahydro-2H-pyran-4-ylmethyl)-1H-benzimidazol-6-yl]pyridin-2-yl}-7-azaspiro[3.5]nonan-2-amine]	1600
O=C(Nc1cc(-c2ccc3nnn(CCN(CCO)CCO)c3c2)c(Cl)cn1)[C@@H]1CCCNC1 [Example 137, (3R)—N-[4-(1-{2-[bis(2-hydroxyethyl)amino]ethyl}-1H-benzotriazol-6-yl)-5-chloropyridin-2-yl]piperidine-3-carboxamide]	> 10000
COc1ccc(C2(CCNc3cc(-c4ccc5ncn(Cc6cccc(F)c6)c5c4)c(Cl)cn3)CCNC2)cc1 (centres unmarked) [Example 120, 5-chloro-4-[1-(3-fluorobenzyl)-1H-benzimidazol-6-yl]-N-{2-[3-(4-methoxyphenyl)pyrrolidin-3-yl]ethyl}pyridin-2-amine]	1300
N[C@H]1C[C@H](C(=O)Nc2cc(-c3ccc4ncn(CC5CCOCC5)c4c3)c(Cl)cn2)C1 [Example 293, trans-3-amino-N-{5-chloro-4-[1-(tetrahydro-2H-pyran-4-ylmethyl)-1H-benzimidazol-6-yl]pyridin-2-yl}cyclobutanecarboxamide]	280
CCN1CCC(CCNc2cc(-c3ccc4ncn(Cc5cccc(F)c5)c4c3)c(Cl)cn2)CC1 [Example 41, 5-chloro-N-[2-(1-ethylpiperidin-4-yl)ethyl]-4-[1-(3-fluorobenzyl)-1H-benzimidazol-6-yl]pyridin-2-amine]	690
O=C(Cn1ccc2ncc(-c3cc(NC(=O)[C@@H]4CCCNC4)ncc3Cl)cc21)c1cccc(F)c1 [Example 303, (3R)—N-(5-chloro-4-{1-[2-(3-fluorophenyl)-2-oxoethyl]-1H-pyrrolo[3,2-b]pyridin-6-yl}pyridin-2-yl)piperidine-3-carboxamide]	1800
O=C(Nc1cc(-c2ccc3ncn(CC4CCOCC4)c3c2)c(Cl)cn1)C1CCc2nccn2C1 (centres unmarked) [Example 284, N-{5-chloro-4-[1-(tetrahydro-2H-pyran-4-ylmethyl)-1H-benzimidazol-6-yl]pyridin-2-yl}-5,6,7,8-tetrahydroimidazo[1,2-a]pyridine-6-carboxamide]	2800
CC(Cc1cnccn1)Nc1cc(-c2ccc3ncn(Cc4cccc(F)c4)c3c2)c(Cl)cn1 (centres unmarked) [Example 52, 5-chloro-4-[1-(3-fluorobenzyl)-1H-benzimidazol-6-yl]-N-[1-(pyrazin-2-yl)propan-2-yl]pyridin-2-amine]	1100
O=C(Nc1cc(-c2ccc3ncn(CCc4cccnc4)c3c2)c(Cl)cn1)[C@@H]1CCCNC1 [Example 90, (3R)—N-(5-chloro-4-{1-[2-(pyridin-3-yl)ethyl]-1H-benzimidazol-6-yl}pyridin-2-yl)piperidine-3-carboxamide]	1700
Cc1nnc(Cn2cnc3ccc(-c4cc(NC(=O)[C@@H]5CCCNC5)ncc4Cl)cc32)[nH]1 [Example 24, (3R)—N-(5-chloro-4-{1-[(5-methyl-4H-1,2,4-triazol-3-yl)methyl]-1H-benzimidazol-6-yl}pyridin-2-yl)piperidine-3-carboxamide]	> 10000
Fc1cccc(Cn2cnc3ccc(-c4cc(N[C@H]5CC[C@H](NCCCOCc6ccccc6)CC5)ncc4Cl)cc32)c1 [Example 240, trans-N-[3-(benzyloxy)propyl]-N′-{5-chloro-4-[1-(3-fluorobenzyl)-1H-benzimidazol-6-yl]pyridin-2-yl}cyclohexane-1,4-diamine]	480
CS(=O)(=O)N1CC2(C1)C(C(=O)Nc1cc(-c3ccc4ncn(Cc5cccc(F)c5)c4c3)c(Cl)cn1)CCS2(=O)=O (centres unmarked) [Example 196, N-{5-chloro-4-[1-(3-fluorobenzyl)-1H-benzimidazol-6-yl]pyridin-2-yl}-2-(methylsulfonyl)-5-thia-2-azaspiro[3.4]octane-8-carboxamide 5,5-dioxide]	450
O=C(Nc1cc(-c2ccc3ncn(CC4CCOCC4)c3c2)c(Cl)cn1)[C@H]1CCC[C@@H](C(=O)N2CCC[C@H]2CO)C1 (mixture of isomers) [Example 335, (cis)-N-{5-chloro-4-[1-(tetrahydro-2H-pyran-4-ylmethyl)-1H-benzimidazol-6-yl]pyridin-2-yl}-3-{[(2S)-2-(hydroxymethyl)pyrrolidin-1-yl]carbonyl}cyclohexanecarboxamide]	640

SMILES	EC50 [nM]
CN1CCC(CNc2cc(-c3ccc4ncn(Cc5cccc(F)c5)c4c3)c(Cl)cn2)CC1 [Example 56, 5-chloro-4-[1-(3-fluorobenzyl)-1H-benzimidazol-6-yl]-N-[(1-methylpiperidin-4-yl)methyl]pyridin-2-amine]	440
O=C(O)[C@H]1CCC[C@@H](C(=O)Nc2cc(-c3ccc4ncn(CC5CCOCC5)c4c3)c(Cl)cn2)C1 (relative stereo) [Example 332, (cis)-3-({5-chloro-4-[1-(tetrahydro-2H-pyran-4-ylmethyl)-1H-benzimidazol-6-yl]pyridin-2-yl}carbamoyl)cyclohexanecarboxylic acid]	> 10000
Fc1cccc(Cn2cnc3ccc(-c4cc(N[C@@H]5CCC[C@H]6CCNC[C@H]65)ncc4Cl)cc32)c1 [Example 101, (4aS,8R,8aS)—N-{5-chloro-4-[1-(3-fluorobenzyl)-1H-benzimidazol-6-yl]pyridin-2-yl}decahydroisoquinolin-8-amine]	3300
O=C(Nc1cc(-c2ccc3ncn(Cc4cncc(F)c4)c3c2)c(Cl)cn1)[C@@H]1CCCNC1 [Example 131, (3R)—N-(5-chloro-4-{1-[(5-fluoropyridin-3-yl)methyl]-1H-benzimidazol-6-yl}pyridin-2-yl)piperidine-3-carboxamide]	360
Fc1cccc(Cn2cnc3ccc(-c4cc(NCCC5CCNCC5)ncc4Cl)cc32)c1 [Example 95, 5-chloro-4-[1-(3-fluorobenzyl)-1H-benzimidazol-6-yl]-N-[2-(piperidin-4-yl)ethyl]pyridin-2-amine]	610
Fc1cccc(Cn2cnc3ccc(-c4cc(NCCCNc5ccccc5)ncc4Cl)cc32)c1 [Example 47, N-{5-chloro-4-[1-(3-fluorobenzyl)-1H-benzimidazol-6-yl]pyridin-2-yl}-N′-phenylpropane-1,3-diamine]	970
COC(=O)c1ccc(Cn2nnc3ccc(-c4cc(NC(=O)[C@@H]5CCCNC5)ncc4Cl)cc32)cc1 [Example 311, methyl 4-{[6-(5-chloro-2-{[(3R)-piperidin-3-ylcarbonyl]amino}pyridin-4-yl)-1H-benzotriazol-1-yl]methyl}benzoate]	350
NC1CC2(C1)CC(C(=O)Nc1cc(-c3ccc4ncn(CC5CCOCC5)c4c3)c(Cl)cn1)C2 (centres unmarked) [Example 296, 6-amino-N-{5-chloro-4-[1-(tetrahydro-2H-pyran-4-ylmethyl)-1H-benzimidazol-6-yl]pyridin-2-yl}spiro[3.3]heptane-2-carboxamide]	890
N#CC1(Cn2cnc3ccc(-c4cc(NC(=O)[C@@H]5CCCNC5)ncc4Cl)cc32)CCOCC1 [Example 132, (3R)—N-(5-chloro-4-{1-[(4-cyanotetrahydro-2H-pyran-4-yl)methyl]-1H-benzimidazol-6-yl}pyridin-2-yl)piperidine-3-carboxamide]	860
OCCNc1cc(-c2ccc3ncn(Cc4cccc(F)c4)c3c2)c(Cl)cn1 [Example 68, 2-({5-chloro-4-[1-(3-fluorobenzyl)-1H-benzimidazol-6-yl]pyridin-2-yl}amino)ethanol]	620
Fc1cccc(Cn2ccc3ncc(-c4cc(NC5CC6(CCNC6)C5)ncc4Cl)cc32)c1 (centres unmarked) [Example 249, N-{5-chloro-4-[1-(3-fluorobenzyl)-1H-pyrrolo[3,2-b]pyridin-6-yl]pyridin-2-yl}-6-azaspiro[3.4]octan-2-amine]	950
O=C(Nc1cc(-c2cc(F)c3ncn(CC4CCOCC4)c3c2)c(Cl)cn1)[C@@H]1CCCNC1 [Example 329, (3R)—N-{5-chloro-4-[4-fluoro-1-(tetrahydro-2H-pyran-4-ylmethyl)-1H-benzimidazol-6-yl]pyridin-2-yl}piperidine-3-carboxamide]	280
COc1cc2ncn(Cc3cccc(F)c3)c2cc1-c1cc(NC(=O)[C@@H]2CCCNC2)ncc1Cl [Example 319, (3R)—N-{5-chloro-4-[1-(3-fluorobenzyl)-5-methoxy-1H-benzimidazol-6-yl]pyridin-2-yl}piperidine-3-carboxamide]	540
O=C(Nc1cc(-c2ccc3c(c2)N(CC(=O)N2CCOCC2)CC3)c(Cl)cn1)C1CCCNC1 (centres unmarked) [Example 220, N-(5-chloro-4-{1-[2-(morpholin-4-yl)-2-oxoethyl]-2,3-dihydro-1H-indol-6-yl}pyridin-2-yl)piperidine-3-carboxamide]	2300
N#CC1(Cn2cnc3ccc(-c4cc(NCCO)ncc4Cl)cc32)CCOCC1 [Example 223, 4-[(6-{5-chloro-2-[(2-hydroxyethyl)amino]pyridin-4-yl}-1H-benzimidazol-1-yl)methyl]tetrahydro-2H-pyran-4-carbonitrile]	6000
Fc1cccc(Cn2cnc3ccc(-c4cc(NCC5CNCC5F)ncc4Cl)cc32)c1 (centres unmarked) [Example 108, 5-chloro-4-[1-(3-fluorobenzyl)-1H-benzimidazol-6-yl]-N-[(4-fluoropyrrolidin-3-yl)methyl]pyridin-2-amine]	1700

From patent US9650358B2 (priority 2013, dated 2017)
